Reference: PubChem BioAssay AID588591 (National Center for Advancing Translational Sciences (NCATS), 2011)
Where “and” joins values, the source holds several entries; their conditions need not be identical. Equal values may be shown once. The whole screen tested about 390,000 compounds, of which about 4,700 (1.2%) were called active. The inconclusive results got no clear call from the source; some entries with a clear call stand among them for comparison. The call rests on the fitted dose curve; in most records, active means well fitted inhibition curve with a large enough effect; inconclusive means small, poorly fitted or top-dose-only effect, or another doubt; inactive means no such curve, though single readings can be large or run the other way. Where the call is inconclusive, the potency comes from a doubtful curve fit.

biological target: DNA polymerase eta (Homo sapiens) (UniProt Q9Y253); test: qHTS for Inhibitors of Polymerase Eta; conditions: recombinant Pol eta, fluorescent DNA replication assay; series mostly up to 114 µM; activity change, negative = inhibition: at the top concentration
UniProt Q9Y253, sequence (Q9Y253 whole entry, looked up): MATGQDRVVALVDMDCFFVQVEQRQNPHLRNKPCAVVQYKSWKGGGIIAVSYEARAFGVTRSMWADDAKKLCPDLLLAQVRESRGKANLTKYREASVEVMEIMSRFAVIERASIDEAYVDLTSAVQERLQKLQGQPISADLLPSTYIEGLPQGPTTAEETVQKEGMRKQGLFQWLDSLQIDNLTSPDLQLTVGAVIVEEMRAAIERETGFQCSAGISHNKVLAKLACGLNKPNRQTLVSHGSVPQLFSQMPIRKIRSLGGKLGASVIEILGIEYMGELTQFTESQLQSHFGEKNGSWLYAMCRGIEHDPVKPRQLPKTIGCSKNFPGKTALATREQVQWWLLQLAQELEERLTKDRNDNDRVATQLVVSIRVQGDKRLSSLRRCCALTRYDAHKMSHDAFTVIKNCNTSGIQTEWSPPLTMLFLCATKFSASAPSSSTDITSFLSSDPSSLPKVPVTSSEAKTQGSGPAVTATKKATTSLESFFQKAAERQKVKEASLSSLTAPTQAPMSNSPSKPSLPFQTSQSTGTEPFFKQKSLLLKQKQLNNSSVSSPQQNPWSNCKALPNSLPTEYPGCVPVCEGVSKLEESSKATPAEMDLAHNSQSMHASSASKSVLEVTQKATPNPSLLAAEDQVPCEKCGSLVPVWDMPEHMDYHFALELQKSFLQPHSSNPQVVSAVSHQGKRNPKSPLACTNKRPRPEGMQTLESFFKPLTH
Outline: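 Pol eta (10 nM) was preincubated with compounds for 15 min at room temperature, after which fluorescent replication substrate (50 nM final) was added to start the reaction. Fluorescence was read kinetically at 0 and 10 min.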
On the % scale 0 is the no-effect control and ±100 the full control effect; potency means the concentration at half of the fitted maximal effect; tags describe the fitted curve by direction and shape.

Row | SMILES | Potency | activity change, negative = inhibition
1 | Cc1cccc(C2c3[nH]c4ccccc4c3CCN2C(=O)c2nn(C)c(=O)c3ccccc23)n1 (stereo not drawn) | inconclusive: 79.4 µM [inhibitor, partial curve, poor fit] | –
2 | NNc1ccc([N+](=O)[O-])c2[nH][nH]c(=O)c12 | active: 2 µM | –
3 | COc1ccc(C2NC(=O)NC(C)=C2C(C)=O)cc1 (stereo not drawn) | inconclusive: 20 µM [inhibitor, partial curve, poor fit] | –
4 | O=C(c1c(O)cc(O)cc1O)C1c2c(cc(O)c3c2O[C@H](c2ccc(O)cc2)[C@@H](O)C3)OC1c1ccc(O)cc1 (stereo partly drawn) | inconclusive: 50.1 µM [inhibitor, partial curve, poor fit] | –
5 | [O-][n+]1c2ccccc2[n+]([O-])c2cc(O)ccc21 | active: 17.8 µM | –
6 | C/C(N)=C(/C#N)C(=O)CSc1nnc(Nc2cccc(C)c2)s1 | active: 35.5 µM and active: 20 µM | –
7 | Cc1cc(NC(=O)c2cncc(Br)c2)ccc1NC(=O)c1cc2ccccc2o1 | active: 50.1 µM | –
8 | CCN(Cc1ccncc1)S(=O)(=O)c1ccc(C(C)=O)cc1 | inconclusive: 89.1 µM [inhibitor, single point] | –
9 | O=C(C1CCCO1)N1CCN(S(=O)(=O)c2cc(F)ccc2F)CC1 (stereo not drawn) | inconclusive: 79.4 µM [inhibitor, partial curve, poor fit] | –
10 | O=C(CCl)N1N=C(c2ccco2)CC1c1cccs1 (stereo not drawn) | inconclusive: 28.2 µM [inhibitor, single point] | –
11 | CCN(c1ccccc1)S(=O)(=O)c1cc(C(=O)OCC(=O)c2c(N)n(C)c(=O)n(C)c2=O)ccc1C | active: 4.47 µM | –
12 | Nc1ccccc1-c1ccccc1N | – | inactive: -19.4%
13 | Cc1c(C(=O)OCC(=O)N(C)c2ccccc2)oc2ccccc12 | inconclusive: 35.5 µM [inhibitor, partial curve, poor fit] | –
14 | O=[N+]([O-])c1ccc(-c2ccn[nH]2)o1 | inconclusive: 22.4 µM [inhibitor, single point] | –
15 | C=CCn1cc(/C=C2/NC(=O)NC2=O)c2ccccc21 | inconclusive: 56.2 µM [inhibitor, partial curve, poor fit] | –
16 | O=C(CSc1nc(=O)n2cc(Cl)ccc2n1)Nc1ccc2c(c1)OCCO2 | active: 28.2 µM | –
17 | O=C(NCc1ccccc1)c1ccc(C(=O)N(C2CCCCC2)C2CCCCC2)cc1 | inconclusive: 56.2 µM [inhibitor, partial curve, poor fit] | –
18 | CC(C)(C)N=C1NN=C(c2cc3ccccc3o2)CS1 | inconclusive: 22.4 µM [inhibitor, partial curve, poor fit] | –
